Test results taken from PubChem BioAssay AID1347071 (National Center for Advancing Translational Sciences (NCATS), 2019).
In all, about 410,000 compounds went through this assay and about 260 (0.063%) were called active. Inconclusive means that the source gave no clear call. Such entries were picked first, then a sample of the others. Calls come from the whole dose curve; as a rule, active = well fitted activation curve with a large enough effect; inconclusive = small, poorly fitted or top-dose-only effect; inactive = no such curve, though single readings can be large or run the other way. No potency is given beside an inconclusive call; the fits are too rough.

Assay: qHTS for compounds that reverse cellular toxicity of Amyloid beta (A-beta) peptide in yeast: Primary Screen; note: nearly all actives have a fitted effect of over 55% in size
Conditions: yeast expressing A-beta42, growth rescue, OD600, 48 h; growth rescue: at 46.1 µM (top of the series), 0% DMSO, 100% iron-clioquinol control
How it was run: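 Growth rescue measured by 600 nm absorbance after 48 h yeast culture at 30 C with compound. Values normalized between DMSO and an equimolar ferric chloride plus clioquinol control.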
Potency is the fitted concentration of half-maximal effect; tags give direction and shape of the fitted curve.

Q: For `CN(CC1COc2ccccc2O1)C(=S)Nc1ccccc1` (stereo not given), which Potency is on record?
A: inconclusive [activator, partial curve, poor fit]

Q: For `O=C(N[C@@H]1C/C=C\C[C@H](CC(=O)N(CCO)Cc2ccccc2)C(=O)N[C@@H](Cc2c[nH]c3ccccc23)COC1=O)OCC1c2ccccc2-c2ccccc21`, which “growth rescue” value is on record?
A: inactive: 0.975%

Q: Which Potency does the source give for `Cc1cccc(-n2c(-c3csc4ccccc34)n[nH]c2=S)c1` here?
A: inconclusive [activator, single point]

Q: Which Potency does the source give for `COc1ccccc1C1(CC(=O)O)CCOC(C(C)C)C1` (stereo not given) here?
A: inconclusive [activator, full curve, poor fit]

Q: Which “growth rescue” value does the source give for `CC1CCCCN1CCCNC(=O)c1ccc2c(c1)sc1nc(-c3ccc(F)cc3)cn12` (stereo not given) here?
A: inactive: -13.7%

Q: For `CSc1ccc(C#N)cc1NC(=O)c1cccc(Cl)c1`, which Potency is on record?
A: inconclusive [activator, full curve]

Q: With `CCOc1ccccc1CNC(=O)c1cn(-c2ccc(OC)cc2)c(=O)c2ccccc12` as the compound, how does the “growth rescue” value read?
A: inactive: -48.5%

Q: With `CC(=O)NC(=S)Nc1cccc([N+](=O)[O-])c1` as the compound, how does the “growth rescue” value read?
A: inactive: -16%

Q: For `S=C(NCc1ccco1)Nc1cc(-c2ccccc2)[nH]n1`, which Potency is on record?
A: inconclusive [activator, single point]

Q: Which Potency does the source give for `CCC(C)Nc1nc(SC(C(C)=O)C(C)=O)nc(N(C)C)n1` (stereo not given) here?
A: inconclusive [activator, single point]

Q: For `Cc1ccc(S(=O)(=O)NN=C2CC3CCC2(C)C3(C)C)cc1` (stereo not given), which Potency is on record?
A: inconclusive [activator, partial curve]

Q: Which Potency does the source give for `Cc1c(Cl)cccc1NC(=S)NNc1ncc(C(F)(F)F)cc1Cl` here?
A: inconclusive [activator, full curve, poor fit]

Q: With `COc1cc(/C=C/c2nc3cc(Cl)ccc3c(=O)n2-c2cccc(C(F)(F)F)c2)cc(OC)c1OC` as the compound, how does the “growth rescue” value read?
A: inactive: -14.4%

Q: With `CC(C)C(NC(=O)c1ccccc1)C(=O)OCC(=O)N1CCCCC1` (stereo not given) as the compound, how does the “growth rescue” value read?
A: inactive: -3.19%

Q: With `COc1ccc(N/N=C/c2c(C(=O)O)ccc3ccccc23)cc1` as the compound, how does the Potency read?
A: inconclusive [activator, single point]

Q: Which “growth rescue” value does the source give for `Cc1nn(CCCC(=O)NCc2cccc(Cl)c2)c(=O)c2c1sc1ccccc12` here?
A: inactive: 7.91%

Q: With `CC(NC(=O)c1cccc(S(=O)(=O)N2CCN(Cc3ccccc3)CC2)c1)c1ccc(Br)cc1` (stereo not given) as the compound, how does the Potency read?
A: inconclusive [activator, single point]

Q: For `CC(C(=O)OCc1nnc(-c2ccccc2)o1)N1C(=O)c2ccccc2C1=O` (stereo not given), which “growth rescue” value is on record?
A: inactive: -28.6%

Q: With `CC1(c2ccccc2)NC(=O)N(CC(=O)NNC(=O)c2ccccc2)C1=O` (stereo not given) as the compound, how does the Potency read?
A: inconclusive [activator, partial curve, poor fit]

Q: Which “growth rescue” value does the source give for `Cc1ccc(S(=O)(=O)NCC(c2ccc(N(C)C)cc2)N2CCc3ccccc32)cc1C` (stereo not given) here?
A: inactive: 9%

Q: For `CCC(O)CNc1nc(-n2nc(C)cc2C)nc2sc3c(c12)CC(C)(C)OC3` (stereo not given), which Potency is on record?
A: inconclusive [activator, full curve, poor fit]

Q: For `COc1ccc(C2N(c3ccc(Cl)cc3)N=C(C(C)=O)N(C)N2C(C)=O)cc1` (stereo not given), which “growth rescue” value is on record?
A: inactive: 4.24%

Q: Which “growth rescue” value does the source give for `Cc1c(Cl)cccc1NC(=O)Cn1cc(C(=O)C2CCCCC2)c2ccccc21` here?
A: inactive: 5.61%

Q: With `CCOC(=O)N1CCN(C(=O)CN(Cc2ccc(Cl)cc2)S(=O)(=O)c2ccc(C)cc2)CC1` as the compound, how does the Potency read?
A: inconclusive [activator, partial curve, poor fit]

Q: With `CC(C)(C)N(Cc1ccccc1)C(=O)COC(=O)CSc1ccc([N+](=O)[O-])cc1` as the compound, how does the Potency read?
A: inconclusive [activator, single point]

Q: For `Cc1nn(C)c(C(=O)Nc2ccc(S(=O)(=O)NC34CC5CC(CC(C5)C3)C4)cc2)c1Br`, which Potency is on record?
A: inconclusive [activator, full curve, poor fit]

Q: For `Cc1cccc2sc(N3CCN(C(=O)CS(=O)(=O)c4ccc(F)cc4)CC3)nc12`, which “growth rescue” value is on record?
A: inactive: 19%

Q: Which “growth rescue” value does the source give for `COC(=O)c1cccc(Nc2c(-c3ccc(OC)cc3)nc3nc[nH]n23)c1` here?
A: inactive: -5.63%

Q: For `O=S1(=O)C=C(Sc2nc3ccccc3s2)c2ccccc21`, which “growth rescue” value is on record?
A: inactive: -45.8%

Q: For `O=C(/C=C/c1ccc2c(c1)OCO2)N1CCOCC1`, which “growth rescue” value is on record?
A: inactive: -15.3%

Q: With `O=C(Nc1nnc(-c2ccc(F)cc2)o1)c1cccc([N+](=O)[O-])c1` as the compound, how does the Potency read?
A: inconclusive [activator, partial curve, poor fit]

Q: Which Potency does the source give for `CC(=O)NNC(=S)NC(=O)C(c1ccccc1)c1ccccc1` here?
A: inconclusive [activator, partial curve]

Q: Which Potency does the source give for `CC(C)(C)NC(=O)NC(=O)COC(=O)Cc1ccc(Cl)cc1Cl` here?
A: active: 11.2 µM

Q: Which Potency does the source give for `CCn1c(CSCc2ccc(C)cc2)n[nH]c1=S` here?
A: inconclusive [activator, partial curve, poor fit]

Q: For `Cn1cccc1CC(=O)NNC(=S)NC(=O)c1ccc(F)cc1`, which Potency is on record?
A: inconclusive [activator, single point]

Q: Which Potency does the source give for `CCOC(=O)[C@]12CCCC=C1N(CCC1=CCCCC1)C(=O)[C@H](CC(=O)NCc1ccccc1)C2` here?
A: inconclusive [activator, full curve]

Q: With `Cc1ccc(S(=O)(=O)N2C(=O)CCC2C(=O)O/N=C(\N)c2ccccc2)cc1` (stereo not given) as the compound, how does the Potency read?
A: inconclusive [activator, single point]

Q: Which Potency does the source give for `S=C1NC2(CCCCCC2)N=C1c1ccccc1` here?
A: active: 5.01 µM

Q: For `O=C1Nc2ccccc2C(=O)C1(Cl)Cc1ccccc1` (stereo not given), which “growth rescue” value is on record?
A: inactive: -80.9%

Q: For `COc1ccc(S(=O)(=O)c2cn(C)c3cc(N4CCCCCC4)c(F)cc3c2=O)cc1`, which “growth rescue” value is on record?
A: inactive: 1.15%

Q: With `N/C(=N\OC(=O)c1ccc(Cl)cc1Cl)c1ccc(Cl)cc1` as the compound, how does the “growth rescue” value read?
A: inactive: -35.1%

Q: With `CC1CCCC(C)N1S(=O)(=O)c1ccc(NC(=O)CNCC2CCCO2)cc1` (stereo not given) as the compound, how does the growth rescue read?
A: inconclusive: 32% [activator]

Q: With `O=C(C1CC=CCC1)N1CCC(CO)(Cc2ccc(Cl)cc2)CC1` (stereo not given) as the compound, how does the Potency read?
A: inconclusive [activator, partial curve, poor fit]

Q: For `CN(CC(=O)Nc1ccc(Cl)c(C(F)(F)F)c1)C(=O)c1ccc2c(c1)OCCO2`, which Potency is on record?
A: inconclusive [activator, partial curve, poor fit]

Q: For `CC(C)(Cc1cc(CC(C)(C)C(=O)O)cc(C(C)(C)C)c1)C(=O)O`, which “growth rescue” value is on record?
A: inactive: 2.64%
